# Sequences with one replicate were seen in a single cluster, so their values are uncertain.
# System: ATP
# Assay: switch fluorescence ratio, 500 uM ATP over buffer (Cy3 cluster intensity, sum of 5 cycles each) (fold (ratio)); higher = stronger signal-on switching upon ATP binding; sequences stand for … in TCGTCGGCAGCGTCAGATGTGTATAAGAGACAGTTTTTTTTTTTTTTTTTTTTTTTTT…TC
# Conditions: aptamer strand: ATP DNA aptamer (quencher-CACCTGGGGGAGTATTGCGGAGGAAGG + anchor), 100 nM annealed; ATP concentration: 500 uM; one replicate
# How it was run: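 Switching-strand clusters labelled with Cy3 on a modified Illumina MiSeq flow-cell were annealed to 100 nM quencher-labelled ATP aptamer, imaged in selection buffer, and re-imaged after 15 min with 500 uM ATP at 22 °C. This was done over five cycles with NaOH stripping and re-annealing in between. The fluorescence ratio is summed target-cycle over summed buffer-cycle Cy3 intensity per cluster, averaged per switch-domain sequence, excluding clusters outside 100-1000 RFU.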
# 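Further: ATP exposure 15 min at 22 °C before imaging.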
row,Sequence,switch fluorescence ratio
1,GCGAAAAAAT,0.984
2,GCGAAAAAGT,0.981
3,GCGAACAGTC,1.05
4,GCGAACTGAT,0.994
5,GCGAAGAGGA,0.966
6,GCGAAGCGAT,1.2
7,GCGAAGGGCG,0.992
8,GCGAAGTCAA,1.08
9,GCGAAGTCGA,1.04
10,GCGAATCTCG,1.02
11,GCGAATGCAC,0.999
12,GCGACAGACT,1.05
13,GCGACTGATT,0.999
14,GCGAGAACTC,1.06
15,GCGAGCATTC,1.17
16,GCGAGCTGGG,1
17,GCGAGGTGTC,1
18,GCGAGTGGAA,1
19,GCGAGTGTTC,1.05
20,GCGAGTTATC,1
21,GCGATCGGTG,1
22,GCGATGGGAA,0.981
23,GCGATGGGGG,1.03
24,GCGCAATTCG,2.39
25,GCGCACCAGG,3.23

row,Sequence,switch fluorescence ratio
1,GCGCATCGAG,1.08
2,GCGCCAAGTT,0.966
3,GCGCCACGCA,0.993
4,GCGCCCAGTG,3.4
5,GCGCCCTTTG,1.04
6,GCGCCGCGGG,0.99
7,GCGCCTTTGA,1.02
8,GCGCGCCGTG,0.999
9,GCGCGGACGA,1.05
10,GCGCGTTCA,0.995
11,GCGCTAAATC,1.14
12,GCGCTACATT,1.05
13,GCGCTGAGAT,0.985
14,GCGCTGCATA,1.14
15,GCGCTTAT,1.05
16,GCGCTTCAAT,1.03
17,GCGCTTTTTA,1.03
18,GCGGAACCCT,1.09
19,GCGGAAGGTA,0.964
20,GCGGAAGTTT,0.972
21,GCGGACAAAA,0.971
22,GCGGACCGAA,1.06
23,GCGGAGAGTC,0.993
24,GCGGCAAGGT,1.04
25,GCGGCCAAGA,0.996

row,Sequence,switch fluorescence ratio
1,GCGGCCAATG,0.995
2,GCGGCCGTAA,0.999
3,GCGGCGAAGG,1
4,GCGGCTACAT,0.986
5,GCGGGAAGTA,1.03
6,GCGGGACATT,1.05
7,GCGGGCAGTG,0.94
8,GCGGGCTTGC,0.979
9,GCGGGGCAAA,1.06
10,GCGGGGTGCT,0.964
11,GCGGGTATAG,1.05
12,GCGGTCTAAA,1
13,GCGGTCTAAT,1.06
14,GCGGTCTGCG,1.01
15,GCGGTTAGTT,1.02
16,GCGGTTGGT,1
17,GCGTACAGTA,1.06
18,GCGTAGACGG,0.945
19,GCGTAGGATG,0.994
20,GCGTAGGCTG,0.95
21,GCGTAGTTTG,0.991
22,GCGTATAAA,1.01
23,GCGTCAGGCC,1.01
24,GCGTCCGGGC,1.07
25,GCGTCGGTTG,0.966

row,Sequence,switch fluorescence ratio
1,GCGTCTCCGC,1.17
2,GCGTGACAG,1.01
3,GCGTGATGGG,1.03
4,GCGTGCATGG,1.01
5,GCGTGCTTTG,1.03
6,GCGTGGGTG,1.04
7,GCGTGTCGTG,1.01
8,GCGTGTGAGG,1
9,GCGTGTTATC,1
10,GCGTTAAT,0.992
11,GCGTTACGCA,0.987
12,GCGTTAGCCG,1.08
13,GCGTTATGCC,1
14,GCGTTCTTTG,1.02
15,GCGTTGAATT,1.01
16,GCGTTGTGTA,1.02
17,GCGTTTGAT,1.02
18,GCTAAAAATA,0.995
19,GCTAAAAGGT,0.965
20,GCTAACCGGT,0.983
21,GCTAACCTGG,1.07
22,GCTAAGAACT,0.997
23,GCTAAGGGTT,0.987
24,GCTAATATAG,1.01
25,GCTAATGGTT,0.985

row,Sequence,switch fluorescence ratio
1,GCTAATGTGA,0.977
2,GCTAATTGAA,0.958
3,GCTAATTGTT,1.01
4,GCTACAGCT,1.01
5,GCTACCGACC,2.11
6,GCTACCTGGG,1
7,GCTACTTGCA,1.04
8,GCTAGAAGAC,1.05
9,GCTAGACATC,1.01
10,GCTAGCAAAT,0.973
11,GCTAGCAAGT,1.08
12,GCTAGCGACT,1.03
13,GCTAGCTTGT,1.02
14,GCTAGGCTCG,1.01
15,GCTAGTTAG,1.01
16,GCTAGTTAGC,0.998
17,GCTAGTTATC,1
18,GCTATAGATG,1.02
19,GCTATAGATT,1
20,GCTATCAAAC,1.02
21,GCTATCGGGG,0.978
22,GCTATGGCGA,1.03
23,GCTATGGTGT,0.987
24,GCTATGTAAT,1.06
25,GCTCAACGCC,1.05

row,Sequence,switch fluorescence ratio
1,GCTCAGATGG,0.997
2,GCTCAGTTAT,1.09
3,GCTCAGTTGT,1.05
4,GCTCATGTTG,0.984
5,GCTCCACATT,2.05
6,GCTCCAGGCT,1.06
7,GCTCCTATTA,1.06
8,GCTCCTGAAG,1.08
9,GCTCGAAAGC,1.11
10,GCTCGAGGTT,1.01
11,GCTCGCAAGT,1.17
12,GCTCGCGGTA,1.13
13,GCTCGCGTTA,1.09
14,GCTCGCTCGA,1.05
15,GCTCGGAGCT,1.02
16,GCTCGGGAAC,1.18
17,GCTCGTGCGG,0.993
18,GCTCTAACTA,1.05
19,GCTCTACAGC,0.978
20,GCTCTACAGT,0.975
21,GCTCTATCAG,1.01
22,GCTCTATTGG,1.01
23,GCTCTCAATT,1.12
24,GCTCTCCTAA,1.07
25,GCTCTGCTGT,1.39

row,Sequence,switch fluorescence ratio
1,GCTCTGGTTC,1.08
2,GCTGAAAGTA,0.999
3,GCTGAAAGTC,0.979
4,GCTGAAGTTA,1.03
5,GCTGACATTA,1.03
6,GCTGACCCGC,2.95
7,GCTGAGGGCT,0.979
8,GCTGATCATC,0.976
9,GCTGATGGGA,0.955
10,GCTGCACATC,1.65
11,GCTGCAGGGA,1.01
12,GCTGCATGA,1
13,GCTGCGGTCT,1.07
14,GCTGCTAGGA,0.99
15,GCTGCTGTCA,1.02
16,GCTGGATGCT,0.994
17,GCTGGCCTCC,1.03
18,GCTGGCGAAC,0.997
19,GCTGGCGGGA,0.925
20,GCTGGCGTCT,1.07
21,GCTGGTGCCA,1.02
22,GCTGGTTTCT,1.03
23,GCTGTAACAG,0.994
24,GCTGTACCTA,1.05
25,GCTGTACTGA,1.1

row,Sequence,switch fluorescence ratio
1,GCTGTAGGGA,1.02
2,GCTGTCCTGT,0.957
3,GCTGTCGATG,1.03
4,GCTGTCGGGT,1
5,GCTGTCTGCA,0.988
6,GCTGTGATCT,0.95
7,GCTGTGCCTC,0.989
8,GCTGTGGGAC,0.998
9,GCTGTGTTCT,0.979
10,GCTGTTACCG,0.969
11,GCTGTTGCCG,0.983
12,GCTTAAGTGG,1
13,GCTTACGGAG,1.18
14,GCTTACTAAT,0.986
15,GCTTAGAGAG,0.998
16,GCTTAGGAAC,1.01
17,GCTTAGTAGG,0.944
18,GCTTATAACT,0.965
19,GCTTATGCAT,1.02
20,GCTTCAAGTA,0.978
21,GCTTCAATCG,1.04
22,GCTTCACATT,1.03
23,GCTTCCATTT,1
24,GCTTCCTATA,1.1
25,GCTTCGATTC,1.05
